Out of some 150,000 compounds screened, about 540 (0.36%) showed an effect of 50% or more. Some of the results follow.

For this assay, the system named is Plasmodium falciparum. Description: Primary screen in NF54 nanoGlo assay, in single point, at 2uM, 72h; a lower Z score goes with more inhibition. The format is functional, Erythrocyte. The settings on record: timepoint 72 hour.
For `COCCN1CC2(CCC1=O)CCN(c1cc(C3CC3)ncn1)CC2`, the “% Inhibition” value is -16% and the Z score is 1.69.
The like results for `Cc1ccc(Cl)c(Oc2cc(N3CCN(S(=O)(=O)c4ccc(Cl)cc4)[C@@H](C)C3)ncn2)c1` were, in that order, -13% and 1.53.
The like results for `CCOC1CC(NC(=O)CCc2ccncc2)C12CCCC2` (stereo not drawn) were, in that order, -12% and 1.25.
Regarding `Cn1ncc2[nH]c(-c3ccc4ccccc4c3)nc21`, the “% Inhibition” value was -15% and the Z score is on record as 1.71.
On the same counts, the results for `COC(=O)n1cnc2ncn(C)c(=O)c21` are -33% and 3.87.
Take `CCOC(=O)N1CCN(C(=O)c2nn[nH]c2Nc2ccccc2F)CC1`: the “% Inhibition” value is on record as -6% and the Z score is 0.77.
The like results for `COc1cccc2c1OC[C@@H](C(=O)N1CCC(Cc3noc(C)n3)CC1)C2` were, in that order, -6% and 1.14.
The like results for `O=C(CN1C(=O)[C@H]2CCCC2=Nc2ccccc21)Nc1ccc(Br)cc1F` were, in that order, 1% and -0.16.
In the case of `Cc1ccc2ccc3cc(C(=O)NCCN4CCN(c5cccc(Cl)c5)CC4)[nH]c3c2n1`, the “% Inhibition” value is -8% and the Z score is reported as 1.42.
With `COc1cc(-c2nc(C(=O)NCC(C)C)cs2)ccc1OCc1ccccc1Cl`, the “% Inhibition” value is -6% and the Z score is 0.99.
The like results for `O=C(Cn1ccc2ccc(N3CCOCC3)nc21)NCc1ccc2c(c1)OCO2` were, in that order, -10% and 1.63.
On the same counts, the results for `Cc1ccc(C(CNC(=O)CCNC(=O)C2CC2C)N2CCCC2)o1` (stereo not drawn) are -7% and 1.1.
As for `CCN(CC)c1nc(C)cc(C(=O)NCCO)n1`, the “% Inhibition” value was -6% and the Z score is 0.96.
On the same counts, the results for `COCCS(=O)(=O)Nc1ccc(O)cc1Br` are -2% and 0.46.
The like results for `Cc1nc(OCCOCC(F)F)c(Br)cc1C#N` were, in that order, -5% and 0.92.
As for `CC(C)(C)N1Cc2cc(Br)ccc2OCC1=O`, the “% Inhibition” value is -9% and the Z score was 0.98.
Regarding `Cc1ccc(S(=O)(=O)N(CC#N)CC#N)cc1`, the “% Inhibition” value is on record as 2% and the Z score was -0.25.
Consider `COCCN1CCCC[C@H](CC(=O)Nc2ccc(Cl)cc2)C1=O`, for which the “% Inhibition” value is reported as -14% and the Z score stood at 2.71.
On to `O=C(Cc1nc2ccccc2[nH]1)N[C@H]1COCC[C@@H]1Oc1ccccn1`, for which the “% Inhibition” value is listed as -2% and the Z score is reported as 0.3.
On the same counts, the results for `O=C(NCCc1ccncc1)c1ccc(-c2cn(-c3ccccc3)cn2)cc1` are 6% and -0.73.
For `O=C(NCC#CCN1CCCCCC1)c1ccc2c(c1)OCO2`, the “% Inhibition” value is -5% and the Z score was found to be 0.94.
Regarding `COc1ccc(N2CCN(c3c4c(nc5nncn35)CCC4)CC2)cc1`, the “% Inhibition” value is 6% and the Z score is -0.72.
On the same counts, the results for `CCN(Cc1ccoc1)c1nc(C)ns1` are -9% and 1.34.
The like results for `COCCc1ccnc(NC(=O)N2CCN(C)CCN(C)CC2)c1` were, in that order, -1% and 0.14.
On the same counts, the results for `Cc1cc(F)ccc1[C@@H]1CCCN1S(=O)(=O)c1cnn(C)c1` are -8% and 1.69.
Consider `O=C(CCc1cnccn1)N[C@H]1CCOC[C@@H]1Oc1ccccn1`, for which the “% Inhibition” value is on record as 10% and the Z score is on record as -1.17.
On the same counts, the results for `O=C(NCC1CCN(c2ccccn2)CC1)c1ccc(Cl)s1` are -12% and 1.85.
Turning to `CCN(C)C(=O)CN1CCC[C@H](C(=O)c2ccc(Oc3ccccc3)cc2)C1`, the “% Inhibition” value is given as -5% and the Z score amounted to 0.44.
The like results for `Clc1cc(Cl)cc(-c2ccc(CNCc3ccco3)o2)c1` were, in that order, -3% and 0.4.
The like results for `CCO[C@H](C(=O)NCc1nnc2c(Cl)cc(C(F)(F)F)cn12)C1CC1` were, in that order, -5% and 0.73.
Take `CN(C)C(=O)N1CCN(c2ncnc(-c3ccccc3)n2)CC1`: the “% Inhibition” value stood at 7% and the Z score is listed as -0.67.
The like results for `CCOCC(=O)Nc1cc2c(cc1F)N(C)S(=O)(=O)N2C` were, in that order, -11% and 1.66.
In the case of `CC1CCC(O)(CS(=O)(=O)Cc2nccs2)CC1` (stereo not drawn), the “% Inhibition” value is given as -8% and the Z score was 1.13.
The like results for `O=C(c1ccc(F)cn1)N(c1ccccn1)C1CCCC1` were, in that order, -6% and 1.08.
The like results for `CCN1CCN(Cc2snnc2C(C)C)[C@H]2CS(=O)(=O)C[C@H]21` were, in that order, -9% and 1.14.
On the same counts, the results for `Cc1nc2c(-c3ccncc3)nsc2c(=O)n1CC(=O)Nc1ccc(Cl)cc1` are -3% and 0.4.
For `OC1CC2CCC(C1)N2c1nnc(C2CC2)o1` (stereo not drawn), the “% Inhibition” value is listed as 2% and the Z score is given as -0.24.
`CCN(C[C@H]1CCN(C(=O)Nc2ccc(C)cn2)C1)CC(F)(F)F`: the “% Inhibition” value was -12% and the Z score was 2.15.
On the same counts, the results for `CCCNC(=O)N(CC(=O)N1CCN(c2ccc(-c3ccc(OC)cc3OC)nn2)CC1)CC1CC1` are -14% and 1.35.
On to `OCC1(NCc2cnc([C@@H]3CCCO3)s2)CCC1`, for which the “% Inhibition” value was -10% and the Z score is on record as 1.87.
The like results for `CC(=O)N1CCC(N2CCC(Cc3ccc(COc4ccncc4)cc3)CC2)CC1` were, in that order, -17% and 3.21.
The like results for `Cc1nnc2ccc(N[C@H]3[C@H](c4ccccc4)C3(C)C)nn12` were, in that order, -14% and 1.88.
On the same counts, the results for `O=C1NC2(CCCC2)C(=O)N1Cc1nnc(-c2ccc(Cl)cc2)o1` are -35% and 4.05.
`C[C@@H](CCn1cccn1)N1CCC(Oc2cc(Cl)ccc2C(=O)N2CCCCC2)CC1`: the “% Inhibition” value was -6% and the Z score is listed as 1.24.

The values above are taken from ChEMBL document CHEMBL4888484, “Replenishing the malaria drug discovery pipeline: Screening and hit evaluation of the MMV Hit Generation Library 1 (HGL1) against asexual blood stage Plasmodium falciparum ,using a nano luciferase reporter read-out” (2022).
